This test relates to NCI-H322M lung. Description: inhibition of tumour cell growth, NCI panel, 48 h.

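Exposure lasted 48 hours, with cells grown in 96-well plates and compounds tested at five concentrations. GI50 = concentration required for 50% inhibition of growth. TGI marks complete inhibition of growth.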

Take `C#Cc1nc(/C=C\CCCCCCC(=O)NO)cs1`: the GI50 was 5.1 µM and the TGI was 92.8 µM.

As to `O=C(Nc1cc(Cl)cc(Cl)c1)Nc1ccc2oc(=O)ccc2c1`, the GI50 is 2.92 µM and the TGI was 11 µM.

Source of the values: PubChem BioAssay (NCI).
